Screen size: about 390,000 compounds; about 930 (0.24%) were called active. Inconclusive results, whose numbers are uncertain, are shown with a selection of clear calls. Calls come from the whole dose curve; as a rule, active = well fitted activation curve with a large enough effect; inconclusive = small, poorly fitted or top-dose-only effect; inactive = no such curve, though single readings can be large or run the other way. A potency beside an inconclusive call is a rough fit, not a confirmed value.
assay: qHTS for Suppressors of FUS Proteinopathy: Primary screen using FUS-linked yeast assay; note: nearly all actives have a fitted effect of over 55% in size;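 for growth rescue (activation): plate controls were DMSO vehicle for no effect and reference control for full effect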; conditions: S. cerevisiae FUS-expressing, OD600, 24 h; Potency: growth rescue; growth rescue (activation): at 76.6 µM (top of the series)
In short: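 Absorbance at 600 nm, taken 24hr after compound addition, measured rescue of FUS-yeast growth at 30C. Induction used 2% galactose with seeding at OD 0.005. Controls: CP55940 from 92uM final, DMSO only.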
Potency is the fitted concentration of half-maximal effect; tags give direction and shape of the fitted curve.

SMILES	Potency	growth rescue (activation)
CCCCCc1cc(=O)oc2c(C(CCN3CCCC(C)C3)c3cc(OC)c(OC)c(OC)c3)c(OC)cc(OC)c12 (stereo not drawn)	inconclusive: 28.2 µM [activator, partial curve, poor fit]	–
COc1ccc(S[C@]2(C(=O)N3CCCC3)CC(=O)N(C(=O)CCc3ccccc3)[C@@H]2c2ccc(OC)cc2)cc1	inconclusive: 14.1 µM [activator, partial curve, poor fit]	–
COc1ccc(C(=O)CCC(=O)NCCc2c[nH]c3ccccc23)cc1OC	inconclusive: 17.8 µM [activator, single point]	–
COc1ccccc1C(=O)NC(=S)Nc1ccc(N2CCOCC2)cc1	–	inconclusive: -49.9% [activator]
COc1ccc(CN2C(=O)C(C)Nc3ncnc(N4CCc5ccccc5C4)c32)cc1 (stereo not drawn)	inconclusive: 50.1 µM [activator, single point]	–
Cc1ccc(-n2c(Cc3cccs3)nnc2SCC(=O)Nc2ccc(OCc3ccccc3)cc2)cc1	inconclusive: 5.01 µM [activator, full curve, poor fit]	–
CCOc1ccccc1CN1CCN(S(=O)(=O)CC)CC1	inactive	–
C=CCOc1ccc(C2NC(=S)NC(C)=C2C(=O)c2ccccc2)cc1OC (stereo not drawn)	inconclusive: 31.6 µM [activator, single point]	–
O=C(CSc1n[nH]c(-c2ccccc2)n1)N1CCCC1	inactive	–
CC(C)(C)c1ccc(S(=O)(=O)NC(=O)C2(C)CCN2C(=O)C2(c3ccc(Cl)cc3)CC2)cc1 (stereo not drawn)	inconclusive: 39.8 µM [activator, single point]	–
COc1cccc(-c2cc(C(=O)N3CCN(c4ccccc4OC)CC3)no2)c1	inconclusive: 31.6 µM [activator, single point]	–
O=C(Nc1ccc(F)cc1)c1ccc(Cn2nc(N3CCN(c4ccccc4)CC3)ccc2=O)o1	inconclusive: 50.1 µM [activator, single point]	–
CCC(C)(C)n1nnnc1C(c1cc2ccc(OC)cc2[nH]c1=O)N1CCc2ccccc2C1 (stereo not drawn)	inconclusive: 22.4 µM [activator, partial curve, poor fit]	–
CC1(C(=O)Nc2cnc3ccccc3c2)CCN1C(=O)CC(c1ccccc1)c1ccccc1 (stereo not drawn)	inconclusive: 22.4 µM [activator, single point]	–
CCOC(=O)c1c(C)[nH]c(C)c1S(=O)(=O)N1CCC(C(=O)N2CCN(c3cccc(C)c3C)CC2)CC1	inconclusive: 50.1 µM [activator, single point]	–
C=CCn1c(=O)[nH]c2cc(C(=O)N3CCN(c4ccc(C(C)=O)cc4)CC3)ccc2c1=O	inconclusive: 6.31 µM [activator, full curve, poor fit]	–
CCOC(=O)N1CCc2c(sc(NC(=O)Cc3ccccc3)c2C(=O)c2ccc(OC)cc2)C1	inconclusive: 28.2 µM [activator, single point]	–
COc1ccc(NC(=O)C2CCCN(C(=O)c3cnn(-c4ccccc4)c3-n3cccc3)C2)cc1 (stereo not drawn)	inconclusive: 12.6 µM [activator, partial curve, poor fit]	–
CC(C)Oc1ccc(C(=O)NC(Cc2c[nH]c3ccccc23)C(=O)NN)cc1 (stereo not drawn)	inconclusive: 35.5 µM [activator, single point]	–

SMILES	Potency	growth rescue (activation)
COC(=O)Cn1c(CN(Cc2ccccc2)Cc2ccccc2)nc2c1c(=O)[nH]c(=O)n2C	inconclusive: 11.2 µM [activator, partial curve, poor fit]	–
CC(O)CNC(=O)C(=O)Nc1c2c(nn1-c1ccc(Cl)cc1)CSC2 (stereo not drawn)	inconclusive: 44.7 µM [activator, single point]	–
COc1ccc(Nc2nc(-c3ccncc3)nc3ccccc23)cc1	inactive	–
Cc1ccc(-n2cc3c(c2-c2ccccc2Br)c(=O)n(C)c(=O)n3C)cc1N	inconclusive: 25.1 µM [activator, single point]	–
CCCCCCCCN1CCS(=O)(=O)N(Cc2ccccc2)C(C(=O)OC)C1 (stereo not drawn)	inactive	–
COCCCN1C(=O)[C@H](CC(=O)NCC23CC4CC(CC(C4)C2)C3)[C@]2(C(=O)OC)CCCCC=C12	inactive	–
CC(CC(=O)Nc1ccc2c(c1)c(=O)n(C)n2Cc1ccc(F)cc1)C(F)(F)F (stereo not drawn)	inactive	–
Cc1cn(C)c(CC(=O)N2CCN(c3cccc(C(F)(F)F)c3)CC2)c1C(=O)O	inactive	–
CCOC(=O)CCN(c1ccccc1)S(=O)(=O)c1cc(-c2cc(C)no2)ccc1C	inconclusive: 44.7 µM [activator, single point]	–
CC1(C(=O)Nc2ccccc2)Cc2c(-c3ccc4c(c3)OCO4)ccnc2O1 (stereo not drawn)	inconclusive: 44.7 µM [activator, single point]	–
CC(=O)N1CCc2c(sc3c2c(=O)n(-c2ccccc2C)c(=O)n3CC(=O)c2ccccc2)C1	inconclusive: 25.1 µM [activator, partial curve, poor fit]	–
COc1ccc(-c2nc3cnccn3c2NCc2ccccc2)cc1SC1CCCCC1	inconclusive: 22.4 µM [activator, single point]	–
Cc1nn(-c2nc(-c3ccco3)cc(C(F)(F)F)n2)c(C)c1Cl	inactive	–
OC[C@@H]1CN(Cc2ccc(-c3ccccc3)cc2)C[C@H](n2cnc3c(N4CCOCC4)ncnc32)O1	inconclusive: 35.5 µM [activator, single point]	–
CCOc1ccc(NC(=O)CC2C(=O)N(c3ccc(C)cc3)C(=O)N2C2CCCCC2)cc1 (stereo not drawn)	inconclusive: 35.5 µM [activator, single point]	–
Cc1ccc(NCc2nnc(SCC(=O)NCc3ccco3)n2CC2CCCO2)c(C)c1 (stereo not drawn)	inconclusive: 15.8 µM [activator, partial curve]	–
CN1CC=C(c2ccccc2)N(c2ccc(Br)cc2)C1=O	inactive	–
COc1cc(CN2C[C@@H](CO)O[C@@H](n3cnc4c(NC5CCC5)ncnc43)C2)cc(OC)c1OC	inconclusive: 35.5 µM [activator, single point]	–
COc1cccc(CN(CC2CCCO2)S(=O)(=O)c2ccc(S(=O)(=O)N(C)C)cc2)c1 (stereo not drawn)	–	inconclusive: 65.2% [activator]

Reference: PubChem BioAssay AID1347120 (National Center for Advancing Translational Sciences (NCATS), 2019)
